# Measurements published in PubChem BioAssay (Tox21).
# Where “and” joins values, the source holds several entries; their conditions need not be identical. Identical values can stand only once. Inconclusive results, whose numbers are uncertain, are shown with a selection of clear calls. For some assays here: Potencies of inconclusive entries are doubtful fits and often do not repeat. The source holds several records for some structures; these can differ, active in one and inactive in another. Calls of active or inactive are those of the source. Unless noted, calls come from the whole dose curve; as a rule, active = well fitted curve in the direction sought with a large enough effect in the repeat runs; inconclusive = weak or mixed curves; inactive = no such curve, though single readings can be large; an effect the other way counts as inactive or inconclusive.
# Experiments:
# [1] = qHTS RealTime-Glo MT Cell Viability Assay in HepG2 cells - 32 hour (AID 1224877); note: nearly all actives have a fitted effect of over 55% in size; note: potency is the fitted concentration of half-maximal effect
# In short: (§1)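 Cell number in HepG2 cultures estimated from NanoLuc luminescence generated by metabolic reduction of a prosubstrate by living cells. The homogeneous, nonlytic format allowed repeated reads at 0, 8, 16, 24, 32 and 40 h of compound exposure.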
# [2] = qHTS RealTime-Glo MT Cell Viability Assay in HEK293 cells - 0 hour (AID 1224880); note: potency is the fitted concentration of half-maximal effect; nearly all actives have a fitted effect of over 45% in size
# In short: (§2)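 Nonlytic bioluminescent viability monitoring. HEK293 at 600 cells/well with reagent; 5 h settle; compound transfer by pintool; plates held at 37 C and read at set time points.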
# [3] = A CellTox Green Cytotoxicity Assay to monitor cytotoxicity in HEK293 cells - 32 hour (AID 1224881); note: nearly all actives have a fitted effect of over 40% in size; note: potency is the fitted concentration of half-maximal effect
# In short: (§3)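 Cytotoxicity was tracked continuously in HEK293 cells by a DNA-binding dye excluded from viable cells. Compounds were transferred in DMSO 5 h after seeding; fluorescence was recorded at intervals up to 40 h.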
# [4] = qHTS RealTime-Glo MT Cell Viability Assay in HepG2 cells - 16 hour (AID 1224885); note: nearly all actives have a fitted effect of over 50% in size; note: potency is the fitted concentration of half-maximal effect
# In short: as §1
# [5] = qHTS RealTime-Glo MT Cell Viability Assay in HEK293 cells - 24 hour (AID 1224886); note: potency is the fitted concentration of half-maximal effect; nearly all actives have a fitted effect of over 50% in size
# In short: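 Homogeneous bioluminescent viability format in HEK293 cells (600 cells/well). Following 5 h at 37 C/5% CO2, 23 nL compound was pintooled; the signal was measured repeatedly during 40 h incubation.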
# [6] = qHTS RealTime-Glo MT Cell Viability Assay in HEK293 cells - 8 hour (AID 1224887); note: potency is the fitted concentration of half-maximal effect; nearly all actives have a fitted effect of over 50% in size
# In short: as §2
# [7] = qHTS RealTime-Glo MT Cell Viability Assay in HepG2 cells - 0 hour (AID 1224889); note: potency is the fitted concentration of half-maximal effect; nearly all actives have a fitted effect of over 50% in size
# In short: as §1
# [8] = qHTS assay to identify small molecule antagonists of the estrogen receptor alpha (ER-alpha) signaling pathway using the BG1 cell line in the presence of 0.1 nM 17-beta-estradiol - cell viability counter screen (AID 1259241); note: potency is the fitted concentration of half-maximal effect; nearly all actives have a fitted effect of over 40% in size
# In short: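 Cells were plated and left 24 hr, compounds in DMSO were pinned in, 17beta-estradiol was added to 0.1 nM final, and after 22 hr CellTiter-Fluor reagent was added for 30 min before fluorescence was read.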
# [9] = target: Androgen receptor (Homo sapiens) (UniProt P10275); assay: qHTS assay to identify small molecule antagonists of the androgen receptor (AR) signaling pathway using the MDA cell line in the presence of 0.5 nM R1881 (AID 1259243)
# UniProt P10275, sequence (P10275 whole entry, looked up): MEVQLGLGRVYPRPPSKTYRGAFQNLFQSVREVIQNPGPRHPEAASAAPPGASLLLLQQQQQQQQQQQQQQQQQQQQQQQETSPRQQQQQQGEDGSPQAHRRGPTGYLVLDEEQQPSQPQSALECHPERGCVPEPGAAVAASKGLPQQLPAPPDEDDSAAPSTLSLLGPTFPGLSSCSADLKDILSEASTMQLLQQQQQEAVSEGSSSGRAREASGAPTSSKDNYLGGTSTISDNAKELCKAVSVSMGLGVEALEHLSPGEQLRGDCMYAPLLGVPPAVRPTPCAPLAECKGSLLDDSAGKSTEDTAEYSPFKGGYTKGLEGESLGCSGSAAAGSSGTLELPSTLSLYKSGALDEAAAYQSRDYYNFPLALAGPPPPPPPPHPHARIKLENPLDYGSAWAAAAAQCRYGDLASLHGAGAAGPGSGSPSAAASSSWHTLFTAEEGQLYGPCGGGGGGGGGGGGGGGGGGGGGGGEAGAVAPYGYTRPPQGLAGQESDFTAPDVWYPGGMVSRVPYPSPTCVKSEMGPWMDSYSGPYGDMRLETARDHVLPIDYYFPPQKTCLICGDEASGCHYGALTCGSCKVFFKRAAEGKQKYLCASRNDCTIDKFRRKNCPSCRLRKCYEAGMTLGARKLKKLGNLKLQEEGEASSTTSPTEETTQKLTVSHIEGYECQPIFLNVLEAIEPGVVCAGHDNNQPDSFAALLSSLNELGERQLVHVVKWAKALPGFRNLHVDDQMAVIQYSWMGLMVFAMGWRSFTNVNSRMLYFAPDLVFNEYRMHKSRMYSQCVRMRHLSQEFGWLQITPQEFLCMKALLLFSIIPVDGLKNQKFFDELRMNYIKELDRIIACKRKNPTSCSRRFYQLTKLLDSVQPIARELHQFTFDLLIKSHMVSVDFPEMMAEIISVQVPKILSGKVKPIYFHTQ
# In short: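 Steps: seed MDA-kb2 cells, incubate 5 hr at 37C; pin-transfer compounds in DMSO; add R1881 to 0.5 nM final; incubate 16 hr; add ONE-Glo, wait 30 min at room temperature; read luminescence.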
# [10] = qHTS assay to identify small molecule phospholipidosis (PLD) inducers (AID 1259344; active = well fitted curve in the direction sought with a large enough effect; inconclusive = small, poorly fitted or top-dose-only effect, or another doubt; inactive = no such curve, though single readings can be large; an effect the other way counts as inactive or inconclusive; note: potency is the fitted concentration of half-maximal effect)
# In short: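 Phospholipidosis is scored by imaging LipidTOX-stained pits in HepG2 cells exposed to compound for 24 h at 37 C; pit counts and integrated intensities per well and per cell serve as outputs.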
# [11] = target: Estrogen receptor (Homo sapiens) (UniProt P03372); assay: qHTS assay to identify small molecule antagonists of the estrogen receptor alpha (ER-alpha) signaling pathway using the BG1 cell line in the presence of 0.1 nM 17-beta-estradiol (AID 1259244)
# UniProt P03372, sequence (P03372 whole entry, looked up): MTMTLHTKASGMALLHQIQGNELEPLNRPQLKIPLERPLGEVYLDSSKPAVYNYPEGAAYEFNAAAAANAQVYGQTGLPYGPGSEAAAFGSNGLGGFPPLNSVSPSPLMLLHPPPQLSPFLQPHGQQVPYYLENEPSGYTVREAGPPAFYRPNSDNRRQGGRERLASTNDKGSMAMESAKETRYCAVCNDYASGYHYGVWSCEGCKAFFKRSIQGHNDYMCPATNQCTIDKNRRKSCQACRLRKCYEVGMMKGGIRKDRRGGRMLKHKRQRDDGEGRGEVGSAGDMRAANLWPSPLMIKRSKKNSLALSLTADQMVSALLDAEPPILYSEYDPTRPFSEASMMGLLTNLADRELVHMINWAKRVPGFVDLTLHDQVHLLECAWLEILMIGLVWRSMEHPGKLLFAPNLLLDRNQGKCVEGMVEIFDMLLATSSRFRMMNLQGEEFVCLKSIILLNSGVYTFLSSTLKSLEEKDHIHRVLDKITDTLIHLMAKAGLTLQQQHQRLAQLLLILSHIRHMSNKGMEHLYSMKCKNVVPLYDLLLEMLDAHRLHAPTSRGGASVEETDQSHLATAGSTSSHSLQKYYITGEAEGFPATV
# In short: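 After 5 days in hormone-depleted medium (charcoal-stripped serum, no phenol red), VM7Luc4E2 cells were seeded, incubated 24 h, then co-treated with compound and 0.1 nM (final) estradiol for 22 h before luminescence detection.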
# [12] = A CellTox Green Cytotoxicity Assay to monitor cytotoxicity in HepG2 cells - 40 hour (AID 1224879); note: potency is the fitted concentration of half-maximal effect; nearly all actives have a fitted effect of over 40% in size
# In short: (§4)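 Real-time, homogeneous cytotoxicity readout: dead-cell DNA staining by CellTox Green in HepG2 monolayers, fluorescence measured at timed intervals up to 40 h of continuous compound exposure.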
# [13] = A CellTox Green Cytotoxicity Assay to monitor cytotoxicity in HepG2 cells - 0 hour (AID 1224882); note: nearly all actives have a fitted effect of over 35% in size
# In short: as §4
# [14] = qHTS assay to identify small molecule antagonists of the androgen receptor (AR) signaling pathway using the MDA cell line in the presence of 0.5 nM R1881 - cell viability counter screen (AID 1259242); note: potency is the fitted concentration of half-maximal effect; nearly all actives have a fitted effect of over 45% in size
# In short: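 Cytotoxicity toward MDA-kb2 cells is measured by CellTiter-Fluor live-cell protease fluorescence after 16 hr compound exposure at 37C in the presence of 0.5 nM R1881 stimulator.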
# [15] = A CellTox Green Cytotoxicity Assay to monitor cytotoxicity in HEK293 cells - 8 hour (AID 1224884); note: nearly all actives have a fitted effect of over 35% in size; note: potency is the fitted concentration of half-maximal effect
# In short: as §3
# [16] = A CellTox Green Cytotoxicity Assay to monitor cytotoxicity in HEK293 cells - 16 hour (AID 1224888); note: potency is the fitted concentration of half-maximal effect; nearly all actives have a fitted effect of over 35% in size
# In short: as §3
# [17] = A CellTox Green Cytotoxicity Assay to monitor cytotoxicity in HepG2 cells - 8 hour (AID 1224890); note: potency is the fitted concentration of half-maximal effect; nearly all actives have a fitted effect of over 45% in size
# In short: as §4
# [18] = A CellTox Green Cytotoxicity Assay to monitor cytotoxicity in HepG2 cells - 32 hour (AID 1224883)
# In short: as §4
# Tags give direction and shape of the fitted curve.
smiles,measurement,setting,value
CO/C=C(/C(=O)OC)c1ccccc1Oc1cc(Oc2ccccc2C#N)ncn1,Potency,[1],"inconclusive: 43.6 µM [cytotoxic, partial curve, poor fit]"
same,Potency,[2],"inconclusive: 58.6 µM [falling, partial curve, poor fit]"
same,Potency,[3],"inconclusive: 43.6 µM [activator, partial curve]"
same,Potency,[4],"inconclusive: 46.6 µM [cytotoxic, partial curve, poor fit]"
same,Potency,[5],"inconclusive: 26.2 µM [cytotoxic, full curve]"
same,Potency,[6],"inconclusive: 26.2 µM [cytotoxic, single point]"
same,Potency,[7],inconclusive: 52.2 µM [cytotoxic]
same,Potency,[8],"inconclusive: 12.2 µM [cytotoxic, full curve]"
same,Potency,[9],active: 5.81 µM
same,Potency,[10],"inconclusive: 0.562 µM [activator, full curve, poor fit]"
Oc1ccc(Cl)c(Cl)c1,Potency,[1],inactive
same,Potency,[2],"inconclusive: 38.3 µM [rising, partial curve]"
COc1cc(CC(C)N)cc2c1OCO2 (stereo unspecified),Potency,[1],inactive
same,Potency,[3],inactive
CCCCCCI,Potency,[1],active: 34.7 µM
same,Potency,[4],inactive
Nc1ccc(Cc2ccc(N)c(Cl)c2)cc1Cl,Potency,[1],"inconclusive: 0.188 µM [cytotoxic, single point]"
same,Potency,[5],active: 26.6 µM
same,Potency,[8],"inconclusive: 74.4 µM [cytotoxic, partial curve, poor fit]"
same,Potency,[11],active: 59.1 µM
N#Cc1nn(-c2c(Cl)cc(C(F)(F)F)cc2Cl)c(N)c1S(=O)C(F)(F)F (stereo unspecified),Potency,[1],"inconclusive: 55.3 µM [cytotoxic, partial curve, poor fit]"
same,Potency,[12],"inconclusive: 55.3 µM [activator, single point]"
same,Potency,[13],inactive
same,Potency,[4],"inconclusive: 49.3 µM [cytotoxic, partial curve, poor fit]"
same,Potency,[5],"inconclusive: 23.9 µM [cytotoxic, partial curve]"
same,Potency,[6],"inconclusive: 21.3 µM [cytotoxic, partial curve]"
same,Potency,[8],"inconclusive: 10.9 µM [cytotoxic, full curve]"
same,Potency,[14],inconclusive: 61.5 µM [cytotoxic]
CS/C(C)=N/OC(=O)N(C)SN(C)C(=O)O/N=C(\C)SC,Potency,[1],"inconclusive: 54.9 µM [cytotoxic, single point]"
same,Potency,[3],active: 54.9 µM
same,Potency,[15],"inconclusive: 38.9 µM [activator, single point]"
same,Potency,[4],"inconclusive: 54.9 µM [cytotoxic, single point]"
same,Potency,[6],active: 43.6 µM
same,Potency,[16],"inconclusive: 61.6 µM [activator, single point]"
same,Potency,[17],"inconclusive: 54.9 µM [activator, single point]"
same,Potency,[14],inconclusive: 68.6 µM [cytotoxic]
O=[Se]=O,Potency,[1],"inconclusive: 21.7 µM [cytotoxic, partial curve]"
same,Potency,[3],"inconclusive: 27.4 µM [activator, single point]"
same,Potency,[18],active: 24.4 µM
same,Potency,[5],active: 17.3 µM
same,Potency,[14],active: 12.1 µM
same,Potency,[11],"inconclusive: 30.4 µM [inhibitor, partial curve]"
CC(=O)[O-].CC(=O)[O-].O.O.[Cd+2],Potency,[1],"inconclusive: 48.3 µM [cytotoxic, partial curve]"
same,Potency,[3],"inconclusive: 43 µM [activator, partial curve, poor fit]"
same,Potency,[4],"inconclusive: 54.2 µM [cytotoxic, partial curve, poor fit]"
same,Potency,[5],"inconclusive: 38.4 µM [cytotoxic, partial curve, poor fit]"
same,Potency,[6],"inconclusive: 48.3 µM [cytotoxic, partial curve, poor fit]"
same,Potency,[8],"inconclusive: 24 µM [cytotoxic, partial curve]"
Nc1ccc(-c2ccc(N)c(Cl)c2)cc1Cl,Potency,[1],active: 49 µM
same,Potency,[12],active: 15.6 µM and active: 12.9 µM and active: 27.5 µM
same,Potency,[18],active: 17.5 µM and active: 14.4 µM and active: 27.5 µM
same,Potency,[15],inactive and active: 49 µM
same,Potency,[4],active: 49 µM
same,Potency,[5],"active: 15.6 µM and inconclusive: 22.9 µM [cytotoxic, partial curve] and active: 24.5 µM"
same,Potency,[6],"inconclusive: 15.6 µM [cytotoxic, full curve] and inconclusive: 25.7 µM [cytotoxic, partial curve] and active: 24.5 µM"
same,Potency,[8],"inconclusive: 30.6 µM [cytotoxic, partial curve, poor fit]"
